# Laboratory results: PubChem BioAssay AID588855 (National Center for Advancing Translational Sciences (NCATS), 2011)
# Screen size: about 410,000 compounds; about 5,000 (1.2%) were called active. The shares of active, inactive and inconclusive entries below differ from those in the screen. Calls come from the whole dose curve; as a rule, active = well fitted inhibition curve with a large enough effect; inconclusive = small, poorly fitted or top-dose-only effect; inactive = no such curve, though single readings can be large or run the other way. Where the call is inconclusive, the potency comes from a doubtful curve fit. Where a structure was tested more than once in an assay, its records may differ in their call.
# Assay: qHTS for Inhibitors of TGF-b; note: nearly all actives have a fitted effect of over 65% in size
# Settings: HepG2 CAGA-GFP TGF-b/SMAD3 reporter, GFP fluorescence, 18 h, TGF-beta stimulated, 500 pg/mL final; series mostly up to 46.1 µM
# Summary of the method: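 Smad-responsive CAGA-GFP expression was quantified in HEPG2 cells exposed to compounds and 500 pg/mL final TGF-beta for 18 h at 37 degrees C; unstimulated wells defined full inhibition.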
# Potency is the fitted concentration of half-maximal effect; tags give direction and shape of the fitted curve.
row,Structure (SMILES),Potency
1,CCOc1ccc2nc(NC(=O)c3cccn(Cc4ccccc4)c3=O)sc2c1,"inconclusive: 3.55 µM [inhibitor, partial curve, poor fit]"
2,c1ccc(-c2cc(-c3ccccc3)[n+](-c3ccccc3)c(-c3ccccc3)c2)cc1,active: 12.6 µM
3,CCOC(=O)C(O)(c1ccc(N(C)C(=O)COc2ccccc2)cc1)C(F)(F)F (stereo unspecified),inactive
4,Cc1cccc(NP(=O)(Oc2ccccc2F)Oc2ccccc2F)c1,active: 12.6 µM
5,O=C(c1cccc2ccccc12)C1CCCN(C2CCC2)C1 (stereo unspecified),"inconclusive: 3.16 µM [inhibitor, full curve]"
6,CC[C@H](C)[C@@H]1NC(=O)CNC(=O)c2csc(n2)[C@H](C(C)(C)O)OC(=O)C(C)(C)[C@H](CCCC(C)(Cl)Cl)OC(=O)c2csc1n2,"inconclusive: 25.1 µM [inhibitor, partial curve, poor fit]"
7,Cc1nonc1OCCNc1ccc([N+](=O)[O-])c2cccnc12,"inconclusive: 5.62 µM [inhibitor, single point]"
8,Cc1ccc(-n2nc(C)cc2NC(=O)COc2cc(C)cc3oc(=O)c4c(c23)CCC4)cc1,inactive
9,O=C(Nc1ccc2c(c1)OCCO2)c1cccn(Cc2cccc(F)c2)c1=O,"inconclusive: 22.4 µM [inhibitor, single point]"
10,O=C1C=C2c3ccccc3CC(C(=O)O)C2CC1 (stereo unspecified),inactive
11,COC(=O)C1=C(c2ccc(-c3ccccc3)c(F)c2)C[C@@H]2CC[C@H]1N2C(=O)NCc1ccc(F)cc1,"inconclusive: 15.8 µM [inhibitor, single point]"
12,Oc1ccc(-[n+]2c(-c3ccccc3)cc(-c3ccccc3)cc2-c2ccccc2)cc1,"inconclusive: 22.4 µM [inhibitor, single point]"
13,C=CCn1c(O)c(C(CC)=Nc2ccc(NC(C)=O)cc2)c(=O)[nH]c1=O,inactive
14,O=P1(Oc2ccccc2)C[C@@H](O)[C@@H](O)[C@H](COCc2ccccc2)O1 (stereo partly specified),inactive
15,O=[N+]([O-])c1ccccc1-c1cc(-c2ccccc2)cc(-c2ccccc2)[n+]1Cc1ccccc1Cl,"inconclusive: 22.4 µM [inhibitor, single point]"
16,CC(C)Oc1cccc(NC(=O)c2cccn(Cc3ccc4c(c3)OC(F)(F)O4)c2=O)c1,inactive
17,O=[N+]([O-])c1ccc(Sc2nc3ccccc3o2)c([N+](=O)[O-])c1,"inconclusive: 25.1 µM [inhibitor, single point]"
18,O=P(Nc1cccc(Cl)c1)(Oc1ccccc1)Oc1ccccc1,"inconclusive: 17.8 µM [inhibitor, single point]"
19,Nc1c(C(=O)NCCc2ccccc2)c2nc3ccccc3nc2n1CCN1CCOCC1,"inconclusive: 22.4 µM [inhibitor, single point]"
20,Nc1ccccc1C(=O)OCC(=O)N1CCc2ccccc21,inactive
21,Cc1ccc(-n2c(C)nc3ccccc3c2=O)c(C)c1,inactive
22,CCOP(=O)(C#Cc1ccccc1)C(O)c1ccc(Br)cc1 (stereo unspecified),"inconclusive: 35.5 µM [inhibitor, single point]"

row,Structure (SMILES),Potency
1,Cc1nc(-c2cccc(NC(=O)c3ccc(Cl)c(S(=O)(=O)N4CCCC4)c3)c2)cs1,"inconclusive: 15.8 µM [inhibitor, single point]"
2,O=C1NCCN(Cc2cccc(Oc3ccccc3)c2)C1CC(=O)N1CCCCC1 (stereo unspecified),"inconclusive: 3.98 µM [inhibitor, partial curve, poor fit]"
3,COc1ccc(-c2cc3nc(NCc4ccc(N(C)C)cc4)n(C)c(=O)c3s2)cc1OC,"inconclusive: 5.01 µM [inhibitor, full curve, poor fit]"
4,COC(=O)C1=C(c2cc3ccccc3o2)C[C@@H]2CC[C@H]1N2C(=O)NCCNC(C)=O,"inconclusive: 35.5 µM [inhibitor, single point]"
5,C=CCNC(=S)N1Cc2cc(Br)ccc2-n2nncc2C1,"inconclusive: 7.94 µM [inhibitor, partial curve]"
6,COc1ccc(-c2nc(CN3C(=O)CN=C(c4ccccc4)c4cc(Cl)ccc43)c(C)o2)cc1,"inconclusive: 35.5 µM [inhibitor, single point]"
7,Cc1cccc(CN2CCCC(C(=O)c3ccc(C(F)(F)F)cc3)C2)n1 (stereo unspecified),"inconclusive: 17.8 µM [inhibitor, single point]"
8,O=C1NCN(c2ccccc2)C12CCN(C(c1cccs1)c1nnnn1Cc1ccccc1)CC2 (stereo unspecified),"inconclusive: 35.5 µM [inhibitor, single point]"
9,COc1ccc2[nH]cc(CCNCc3cccnc3)c2c1,inactive
10,CC1CCN(c2ccccc2NC(=O)c2cc3ccccc3o2)CC1,"inconclusive: 6.31 µM [inhibitor, single point]"
11,COc1ccc(CC(C)NCCC(c2ccccc2)c2ccccc2)cc1 (stereo unspecified),"inconclusive: 35.5 µM [inhibitor, single point]"
12,O=C(CCN1CC1)OCCOC(=O)CCN1CC1,inactive
13,CSCCC(c1nnnn1C1CCCCC1)N1CCC2(CC1)C(=O)NCN2c1ccccc1 (stereo unspecified),"inconclusive: 12.6 µM [inhibitor, partial curve, poor fit]"
14,CCCc1[nH]nc2c1C1(C(=O)N(Cc3ccccc3)c3ccccc31)C(C(=O)OC)=C(N)O2 (stereo unspecified),"inconclusive: 25.1 µM [inhibitor, single point]"
15,Cc1ccc2c(c1)[C@@H]1CN(C)CC[C@@H]1N2C(=O)Nc1cccc(C(F)(F)F)c1,"inconclusive: 35.5 µM [inhibitor, single point]"
16,OC(Cn1c2ccccc2c2ccccc21)C[n+]1cccc2ccccc21 (stereo unspecified),"inconclusive: 20 µM [inhibitor, single point]"
17,O=C1NCN(c2ccccc2)C12CCN(C(c1cccc3ccccc13)c1nnnn1Cc1ccccc1)CC2 (stereo unspecified),"inconclusive: 14.1 µM [inhibitor, single point]"
18,CC1(C)C[C@H]2C=C(C=O)[C@]3(C=O)C[C@]3(C)[C@H]2C1,"inconclusive: 15.8 µM [inhibitor, single point]"
19,COC(=O)c1ccc(CC(C(=O)c2ccccc2)N(C)C)cc1 (stereo unspecified),inactive
20,C[C@H]1CCC/C=C/[C@@H]2C[C@H](O)C[C@H]2[C@H](O)/C=C/C(=O)O1,active: 0.126 µM
21,N#Cc1c(/N=C/c2c(O)n(Cc3ccco3)c(=O)[nH]c2=O)sc2c1CCCC2,inactive
22,CCc1ccc2c(CN3CC=C(c4ccccc4)CC3)cc(=O)oc2c1,"inconclusive: 35.5 µM [inhibitor, single point]"

row,Structure (SMILES),Potency
1,Brc1ccc2[nH]cc(/C=N/N3CCCCC3)c2c1,"inconclusive: 10 µM [inhibitor, partial curve, poor fit]"
2,O=C(Nc1ccc(Cl)cc1)N1CC1,inactive
3,O=C1OC(c2ccc(Cl)cc2)=N/C1=C\N1CC2CC(C1)c1cccc(=O)n1C2 (stereo unspecified),inactive
4,Nc1c(C(=O)Nc2cccc(Br)c2)sc2nc3c(cc12)N1CCC3CC1,inactive
5,COC(=O)C1=C(c2ccc(OCc3ccccc3)cc2)C[C@@H]2CC[C@H]1N2C(=O)NCc1ccccc1,"inconclusive: 35.5 µM [inhibitor, single point]"
6,O=C(c1ccc(Cl)cc1)C1CCCN(Cc2ccon2)C1 (stereo unspecified),"inconclusive: 0.316 µM [inhibitor, full curve, poor fit]"
7,CCc1ccc(/C=C(/C#N)C(N)=S)cc1,"inconclusive: 35.5 µM [inhibitor, single point]"
8,CC1=C(C)[N+](=O)C2(O)CCCCC2(C)N1[O-] (stereo unspecified),"inconclusive: 1 µM [inhibitor, partial curve, poor fit]"
9,COc1ccc(CNc2oc(-c3cccc4ccccc34)nc2P(=O)(OC)OC)cc1,"inconclusive: 14.1 µM [inhibitor, single point]"
10,COC(=O)C1=C(c2cc3ccccc3s2)C[C@@H]2CC[C@H]1N2C(=O)N1CCCCC1,"inconclusive: 7.08 µM [inhibitor, partial curve, poor fit]"
11,CC(N)Cc1cn(Cc2ccccc2)c2ccccc12 (stereo unspecified),"inconclusive: 35.5 µM [inhibitor, single point]"
12,CCCCCCC(=O)N/N=C/c1c(O)n(C(C)CC)c(=S)[nH]c1=O (stereo unspecified),"inconclusive: 12.6 µM [inhibitor, single point]"
13,CN1Cc2cccnc2N(C)Cc2cc(Cl)ccc21,"inconclusive: 2.82 µM [inhibitor, full curve, poor fit]"
14,CC(C)(O)/C=C/C(=O)C(C)(O)C1C(O)CC2(C)C3CC=C4C(C=C(O)C(=O)C4(C)C)C3(C)C(=O)CC12C (stereo unspecified),"inconclusive: 2.24 µM [inhibitor, partial curve, poor fit]"
15,NNC(=O)c1ccc(Cl)cc1,"inconclusive: 0.112 µM [inhibitor, full curve, poor fit]"
16,Cc1ccc(N=Nc2cc(C)ccc2N)cc1,"inconclusive: 20 µM [inhibitor, single point]"
17,O=C(CN1C(=O)CN=C(c2ccccc2)c2ccccc21)Nc1cccc(C(F)(F)F)c1,"inconclusive: 22.4 µM [inhibitor, single point]"
18,Fc1ccccc1CCNCc1cccc2ccccc12,"inconclusive: 35.5 µM [inhibitor, single point]"
19,O=C(CNC(=O)OCc1ccccc1)NCC(=O)Nc1ccc(Br)cc1C(=O)c1ccccc1,inactive
20,COc1ccc(-c2cc(=Nc3ccccc3)c3cc(C)ccc3o2)cc1,"inconclusive: 35.5 µM [inhibitor, single point]"
21,COc1ccc2[nH]cc(CCN)c2c1,inactive
22,O=C(COc1ccc(Br)cc1)N1CCN(Cc2ccc3c(c2)OCO3)CC1,inactive
